# Measurements published in PubChem BioAssay AID504339 (National Center for Advancing Translational Sciences (NCATS), 2011).
# Hit rate of the full screen: of about 390,000 compounds, about 17,000 (4.4%) were called active. The inconclusive results got no clear call from the source; some entries with a clear call stand among them for comparison. The call rests on the fitted dose curve; in most records, active means well fitted inhibition curve with a large enough effect; inconclusive means small, poorly fitted or top-dose-only effect; inactive means no such curve, though single readings can be large or run the other way. Potencies beside an inconclusive call are fits to weak or partial responses and may not hold up.
# Target: Lysine-specific demethylase 4A (Homo sapiens) (UniProt O75164)
# Sequence of UniProt O75164 (O75164 whole entry, looked up, the tested form may be a part): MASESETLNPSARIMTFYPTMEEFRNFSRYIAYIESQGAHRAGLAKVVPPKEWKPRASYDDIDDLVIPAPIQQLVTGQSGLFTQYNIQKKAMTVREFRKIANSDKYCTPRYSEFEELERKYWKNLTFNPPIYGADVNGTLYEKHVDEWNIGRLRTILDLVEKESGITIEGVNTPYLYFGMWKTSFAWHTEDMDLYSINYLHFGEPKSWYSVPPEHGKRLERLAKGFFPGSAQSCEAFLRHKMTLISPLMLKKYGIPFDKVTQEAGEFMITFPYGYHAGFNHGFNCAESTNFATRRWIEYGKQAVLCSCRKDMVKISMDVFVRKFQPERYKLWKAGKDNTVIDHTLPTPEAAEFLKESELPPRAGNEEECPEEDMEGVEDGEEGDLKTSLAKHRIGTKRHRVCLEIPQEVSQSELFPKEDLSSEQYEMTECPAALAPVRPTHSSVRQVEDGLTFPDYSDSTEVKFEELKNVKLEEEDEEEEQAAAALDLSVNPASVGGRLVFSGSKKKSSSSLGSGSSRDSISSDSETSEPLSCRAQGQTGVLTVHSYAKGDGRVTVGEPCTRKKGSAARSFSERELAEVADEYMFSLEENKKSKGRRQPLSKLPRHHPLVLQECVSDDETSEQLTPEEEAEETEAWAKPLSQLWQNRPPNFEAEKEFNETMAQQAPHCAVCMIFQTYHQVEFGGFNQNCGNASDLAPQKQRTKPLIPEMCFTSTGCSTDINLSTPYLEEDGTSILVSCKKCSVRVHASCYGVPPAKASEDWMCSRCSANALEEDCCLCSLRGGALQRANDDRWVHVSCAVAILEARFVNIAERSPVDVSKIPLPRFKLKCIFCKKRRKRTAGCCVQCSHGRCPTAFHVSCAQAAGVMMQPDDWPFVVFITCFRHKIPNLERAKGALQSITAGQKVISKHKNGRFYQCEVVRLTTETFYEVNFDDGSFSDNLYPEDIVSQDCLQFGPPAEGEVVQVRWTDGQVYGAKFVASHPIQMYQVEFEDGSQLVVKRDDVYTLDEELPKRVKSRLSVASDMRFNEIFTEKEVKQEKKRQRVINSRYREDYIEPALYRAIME
# Assay: qHTS Assay for Inhibitors of JMJD2A-Tudor Domain; further: nearly all actives have a fitted effect of over 50% in size
# Details: AlphaScreen JMJD2A-Tudor / H3K4me3 peptide binding; activity change, negative = inhibition: at 114 µM (top of the series)
# On the % scale 0 is the no-effect control and ±100 the full control effect; potency means the concentration at half of the fitted maximal effect; tags describe the fitted curve by direction and shape.
Compound,Potency,"activity change, negative = inhibition"
CN(C)c1ccc(NC(=O)Cn2c(SCc3ccc(F)cc3)nc3ccncc32)cc1,"inconclusive: 12.6 µM [inhibitor, full curve, poor fit]",
FC(F)(F)c1ccc(Cl)c(N/N=C/c2ccc(N3CCOCC3)s2)c1,"inconclusive: 50.1 µM [inhibitor, partial curve]",
CN(C)CCCN(C(=O)c1ccc2c(c1)CCCC2)c1nc2ccc(Cl)cc2s1,active: 39.8 µM,
CCN1CCN(CCCNC(=O)c2cnn(-c3ccc(C)cc3C)c2C2CCN(C(=O)OC(C)(C)C)CC2)CC1,,inactive: -25.9%
Cc1nnc2sc(SCC(=O)Nc3ccc(Cl)cc3)nn2c1=O,"inconclusive: 89.1 µM [inhibitor, single point]",
O=C(NCc1ccco1)/C(=C/c1cccc(C(F)(F)F)c1)c1nc2ccccc2[nH]1,,inactive: -24.6%
CSc1nc2sc3c(c2c(=O)n1Cc1ccccc1)CCC(C(C)(C)C)C3 (stereo not drawn),,inactive: -3.92%
Cc1ccc(Sc2c([N+](=O)[O-])ncn2C)cc1,,inactive: -4.58% [at 57.1 µM]
COc1cc(/C=C2\SC(=S)N(CCC(=O)Nc3ccc(O)cc3)C2=O)cc(OC)c1OC,active: 22.4 µM,
O=C1ON=C(c2ccc(Cl)c([N+](=O)[O-])c2)/C1=C/c1cccc([N+](=O)[O-])c1O,active: 20 µM,
CCCCn1c(N)c(N(CC(C)C)C(=O)Cc2ccc(S(=O)(=O)N3CCOCC3)s2)c(=O)[nH]c1=O,,inactive: -6.01%
O=C1/C(=C/c2cccc(Br)c2)SC(=S)N1/N=C/c1cc([N+](=O)[O-])ccc1O,"inconclusive: 3.98 µM [inhibitor, partial curve]",
CN(C)c1ccc(/C=C2\NC(=S)N(Cc3ccccc3)C2=O)cc1,"inconclusive: 44.7 µM [inhibitor, partial curve]",
C=C(C)COc1ccc(-c2nc(N)ncc2-c2ccc(OC)c(OC)c2)c(O)c1,"inconclusive: 25.1 µM [inhibitor, single point]",
CCOc1ccc(OCc2ccc(C(=O)N3CCc4ccccc4C3)o2)cc1,"inconclusive: 56.2 µM [inhibitor, partial curve]",
CCOc1cc(NC(=S)Nc2cccc(OC)c2)c(OCC)cc1NC(=O)c1ccc(C)cc1,"inconclusive: 50.1 µM [inhibitor, partial curve]",
CC(C)CN1C(=O)/C(=C(/C#N)C(=O)NC2CCCCC2)c2ccccc21,"inconclusive: 56.2 µM [inhibitor, partial curve]",
COc1ccc(CC(=O)NNC(=O)c2cccs2)cc1OC,active: 31.6 µM,
NS(=O)(=O)c1ccc(N/N=C/C=C/c2ccccc2[N+](=O)[O-])cc1,"inconclusive: 20 µM [inhibitor, full curve]",
O=C(c1ccco1)N1CCN(C(=O)c2cc3cc([N+](=O)[O-])ccc3oc2=O)CC1,"inconclusive: 56.2 µM [inhibitor, partial curve]",
CCCCC(=O)N(c1ccc2oc(C)c(C(C)=O)c2c1)S(=O)(=O)c1ccc(F)cc1C,,inactive: -6.19%
O=C(O)CC/C(=N\Nc1ccc(S(=O)(=O)N2CCCC2)cc1[N+](=O)[O-])c1cccs1,"inconclusive: 50.1 µM [inhibitor, partial curve]",

Compound,Potency,"activity change, negative = inhibition"
CCN1CCc2nc3sc(C(=O)Nc4cccc(Cl)c4C)c(N)c3cc2C1,"inconclusive: 56.2 µM [inhibitor, partial curve]",
Nc1cc(CN2C(=O)c3ccccc3C2=O)cc(Cl)c1O,"inconclusive: 56.2 µM [inhibitor, partial curve]",
CCC(=O)N1CCc2cc(Br)cc(S(=O)(=O)N3CCCC(C(=O)Nc4ccc(C(C)C)cc4)C3)c21 (stereo not drawn),,inactive: -25.6%
O=C1/C(=C/N(C(=O)c2ccco2)c2ccc(Cl)cc2)Sc2ccccc21,"inconclusive: 56.2 µM [inhibitor, partial curve]",
COc1ccc2c3c(ccc2c1)C(=O)/C(=C/O)CC3,active: 7.94 µM,
COc1cccc(CNC(=O)CSc2nnc3c(n2)[nH]c2ccc(C)cc23)c1,"inconclusive: 2 µM [inhibitor, full curve, poor fit]",
O=C(CNCc1ccccn1)N1CCc2ccccc2C1,"inconclusive: 35.5 µM [inhibitor, full curve, poor fit]",
COc1ccc(N2CCN(CCCNC(=O)CN3CCN(Cc4ccccc4C)C3=O)CC2)cc1,"inconclusive: 44.7 µM [inhibitor, partial curve]",
Cc1ccccc1-n1c(SCC(=O)N2CCCC2)nnc1-c1ccccn1,"inconclusive: 89.1 µM [inhibitor, single point]",
c1ccc(-c2ccccc2OCCN2CCCCC2)cc1,active: 8.91 µM,
CC(=O)NC(=S)NNC(=O)COc1ccc(Br)cc1,active: 25.1 µM,
CNC(=O)C1CCC(Cn2c(=O)c3sccc3n(CC(=O)NCc3ccccc3)c2=O)CC1 (stereo not drawn),,inactive: 8.67%
COc1cc([N+](=O)[O-])cc(/C=N/NC(=O)c2cc(C)nc3ccccc23)c1O,active: 22.4 µM,
CC(Nc1ccc(N2CCOCC2)cc1)C(=O)N1c2ccccc2CC1C (stereo not drawn),"inconclusive: 56.2 µM [inhibitor, partial curve]",
COCc1cc(CN2CCCC(C(=O)Nc3ccc(-c4ccco4)cc3)C2)ccc1OC (stereo not drawn),"inconclusive: 56.2 µM [inhibitor, partial curve]",
N/C(=N\OC(=O)COc1ccc(Br)cc1Cl)c1ccccn1,active: 79.4 µM,
CCOC(=O)Cc1cn2c(=O)cc(CSCC(=O)Nc3ccc(C)c(C)c3)nc2s1,"inconclusive: 39.8 µM [inhibitor, full curve, poor fit]",
O=C(O)Cn1cc(/C=N/Nc2ccc([N+](=O)[O-])cn2)c2ccccc21,"inconclusive: 50.1 µM [inhibitor, partial curve]",
O=S(=O)(c1ccc(Cl)cc1)N1CCN(Cc2ccc(O)c3ncccc23)CC1,active: 56.2 µM,
Cc1onc(-c2ccccc2Cl)c1C(=O)Nc1ccc(-n2nncc2-c2ccco2)cc1,"inconclusive: 44.7 µM [inhibitor, partial curve]",
CCN1CCN(c2ncc3c(n2)CCN(Cc2cc(F)cc(F)c2)C3)CC1,active: 79.4 µM,
